# From the supplement of paper PMC8728848
# Some of the results follow.
# Columns and labels:
# Assay in all cases: glycan array binding signal (z-score within array); higher = stronger binding
# Details in all cases: glycan notation: IUPAC condensed, linker removed
# [1] = molecular target: Gal(b1-3)GalNAc(b1-3)Gal(a1-4)Gal(b1-4)Glc
# Summary of the method: (§1)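 Glycan array binding is given as a within-array Z-score, which can be read as non-binding when negative. The arrays, 3228 of them, came from the Consortium for Functional Glycomics database and were retained only where the protein sequence was available. Z-scores were averaged across arrays of the same protein sequence at different concentrations or buffers and across linkers.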
# [2] = molecular target: Gal(b1-3)GalNAc(b1-4)Gal(b1-4)Glc
# Summary of the method: as §1
# [3] = molecular target: Gal(b1-3)GalNAc(b1-4)[Neu5Ac(a2-3)]Gal(b1-4)Glc
# Summary of the method: as §1
# [4] = molecular target: Gal(b1-3)GlcNAc
# Summary of the method: as §1
# [5] = molecular target: Gal(b1-3)GlcNAc(a1-3)Gal(b1-4)GlcNAc
# Summary of the method: as §1
# [6] = molecular target: Gal(b1-3)GlcNAc(a1-6)Gal(b1-4)GlcNAc
# Summary of the method: as §1
# [7] = molecular target: Gal(b1-3)GlcNAc(b1-2)Man
# Summary of the method: as §1
# [8] = molecular target: Gal(b1-3)GlcNAc(b1-2)Man(a1-3)[Gal(b1-3)GlcNAc(b1-2)Man(a1-6)]Man(b1-4)GlcNAc(b1-4)GlcNAc
# Summary of the method: as §1
# [9] = molecular target: Gal(b1-3)GlcNAc(b1-2)Man(a1-3)[Gal(b1-3)GlcNAc(b1-2)Man(a1-6)]Man(b1-4)GlcNAc(b1-4)[Fuc(a1-6)]GlcNAc
# Summary of the method: as §1
# [10] = molecular target: Gal(b1-3)GlcNAc(b1-2)Man(a1-3)[GlcNAc(b1-4)][Gal(b1-3)GlcNAc(b1-2)Man(a1-6)]Man(b1-4)GlcNAc(b1-4)GlcNAc
# Summary of the method: as §1
# [11] = molecular target: Gal(b1-3)GlcNAc(b1-2)[Gal(b1-3)GlcNAc(b1-6)]Man(a1-6)[Gal(b1-3)GlcNAc(b1-2)Man(a1-3)]Man(b1-4)GlcNAc(b1-4)GlcNAc
# Summary of the method: as §1
# [12] = molecular target: Gal(b1-3)GlcNAc(b1-3)Gal(b1-3)GlcNAc
# Summary of the method: as §1
# [13] = molecular target: Gal(b1-3)GlcNAc(b1-3)Gal(b1-4)Glc
# Summary of the method: as §1
# [14] = molecular target: Gal(b1-3)GlcNAc(b1-3)Gal(b1-4)GlcNAc
# Summary of the method: as §1
# [15] = molecular target: Gal(b1-3)GlcNAc(b1-3)Gal(b1-4)GlcNAc(b1-2)Man(a1-3)[Gal(b1-3)GlcNAc(b1-3)Gal(b1-4)GlcNAc(b1-2)Man(a1-6)]Man(b1-4)GlcNAc(b1-4)GlcNAc
# Summary of the method: as §1
# [16] = molecular target: Gal(b1-3)GlcNAc(b1-3)Gal(b1-4)GlcNAc(b1-2)[Gal(b1-3)GlcNAc(b1-3)Gal(b1-4)GlcNAc(b1-6)]Man(a1-6)[Gal(b1-3)GlcNAc(b1-3)Gal(b1-4)GlcNAc(b1-2)Man(a1-3)]Man(b1-4)GlcNAc(b1-4)[Fuc(a1-6)]GlcNAc
# Summary of the method: as §1
# [17] = molecular target: Gal(b1-3)GlcNAc(b1-3)Gal(b1-4)GlcNAc(b1-3)Gal(b1-4)GlcNAc(b1-2)[Gal(b1-3)GlcNAc(b1-3)Gal(b1-4)GlcNAc(b1-3)Gal(b1-4)GlcNAc(b1-6)]Man(a1-6)[Gal(b1-3)GlcNAc(b1-3)Gal(b1-4)GlcNAc(b1-3)Gal(b1-4)GlcNAc(b1-2)Man(a1-3)]Man(b1-4)GlcNAc(b1-4)[Fuc(a1-6)]GlcNAc
# Summary of the method: as §1
# [18] = molecular target: Gal(b1-3)GlcNAc(b1-3)Gal(b1-4)GlcNAc(b1-6)[Gal(b1-3)GlcNAc(b1-3)]Gal(b1-4)Glc
# Summary of the method: as §1
# [19] = molecular target: Gal(b1-3)GlcNAc(b1-3)Gal(b1-4)[Fuc(a1-3)]GlcNAc
# Summary of the method: as §1
# [20] = molecular target: Gal(b1-3)GlcNAc(b1-3)Gal(b1-4)[Fuc(a1-3)]GlcNAc(b1-6)[Gal(b1-3)GlcNAc(b1-3)]Gal(b1-4)Glc
# Summary of the method: as §1
# [21] = molecular target: Gal(b1-3)GlcNAc(b1-3)GalNAc
# Summary of the method: as §1
# [22] = molecular target: Gal(b1-3)GlcNAc(b1-6)Gal(b1-4)GlcNAc
# Summary of the method: as §1
# [23] = molecular target: Gal(b1-3)GlcNAc(b1-6)GalNAc
# Summary of the method: as §1
binder,measurement,setting,value
"Langerin K313I (Homo sapiens), Q9UJ71 (protein) STLNAQIPELKSDLEKASALNTKIRALQGSLENMSKLLKRQNDILQVVSQGWKYFKGNFYYFSLIPKTWYSAEQFCVSRNSHLTSVTSESEQEFLYKTAGGLIYWIGLTKAGMEGDWSWVDDTPFNKVQSARFWIPGEPNNAGNNEHCGNIKAPSLQAWNDAPCDITFLFICKRPYVPSEP",glycan array binding signal (z-score),[1],-0.275
same,glycan array binding signal (z-score),[2],-0.338
same,glycan array binding signal (z-score),[3],-0.31
same,glycan array binding signal (z-score),[4],-0.378
same,glycan array binding signal (z-score),[5],-0.371
same,glycan array binding signal (z-score),[6],-0.353
same,glycan array binding signal (z-score),[7],-0.077
same,glycan array binding signal (z-score),[8],0.043
same,glycan array binding signal (z-score),[9],0.113
same,glycan array binding signal (z-score),[10],0.366
same,glycan array binding signal (z-score),[11],0.05
same,glycan array binding signal (z-score),[12],-0.356
same,glycan array binding signal (z-score),[13],-0.361
same,glycan array binding signal (z-score),[14],-0.339
same,glycan array binding signal (z-score),[15],0.221
same,glycan array binding signal (z-score),[16],1.58
same,glycan array binding signal (z-score),[17],1.79
same,glycan array binding signal (z-score),[18],-0.391
same,glycan array binding signal (z-score),[19],-0.347
same,glycan array binding signal (z-score),[20],-0.333
same,glycan array binding signal (z-score),[21],-0.171
same,glycan array binding signal (z-score),[22],-0.399
same,glycan array binding signal (z-score),[23],-0.174
